Data as given in the supplement of paper PMC3334620.
The full ranking holds about 33,000 sequences; the median of “E-score (-0.5 to 0.5)” is about -0.013, and the highest 2% start at about 0.3. The list shows a part of the results.

Biological target: T1, Msn1 (UniProt P22148)
T1 sequence: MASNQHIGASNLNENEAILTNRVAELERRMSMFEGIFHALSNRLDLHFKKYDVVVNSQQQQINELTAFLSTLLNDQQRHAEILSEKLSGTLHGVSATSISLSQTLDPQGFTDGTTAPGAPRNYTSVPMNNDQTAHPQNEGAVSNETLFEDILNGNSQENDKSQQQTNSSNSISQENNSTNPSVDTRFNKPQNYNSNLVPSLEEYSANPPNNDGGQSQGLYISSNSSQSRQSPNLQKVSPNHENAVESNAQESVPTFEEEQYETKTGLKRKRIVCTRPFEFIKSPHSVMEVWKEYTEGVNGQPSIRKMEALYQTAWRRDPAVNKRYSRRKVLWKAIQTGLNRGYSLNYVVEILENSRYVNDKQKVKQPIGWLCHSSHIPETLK
Assay: PBM E-score (8-mer binding enrichment) (E-score (-0.5 to 0.5)); higher = stronger / more preferred TF binding; most listed sequences are background and not binding sites
Conditions: protein concentration: 200 nM; construct: GST-full length
Description: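 Universal 'all 10-mer' protein binding microarrays (Agilent AMADID 015681) probed with GST-tagged S. cerevisiae TFs (full-length or DBD) made by in vitro transcription/translation (PURExpress), about 100-200 nM. Bound TF was detected with fluorescent anti-GST. Each ungapped 8-mer (which stands for itself and its reverse complement) is scored by the PBM enrichment score (E-score), a modified Wilcoxon-Mann-Whitney statistic from -0.5 to +0.5, computed with the Universal PBM Analysis Suite. Scale: above 0.35 generally sequence-specific binding.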

| Sequence | PBM E-score |
| --- | --- |
| GCAAGTTA | 0.103 |
| GCTGCGAC | 0.155 |
| CCCGTTGC | -0.0761 |
| TGTGCACA | -0.065 |
| GCAGACGA | -0.0528 |
| CCGTTAGA | -0.0404 |
| CAACGTAG | 0.00588 |
| ATACGACG | 0.111 |
| AAGTTAGC | 0.0899 |
| ATATTCCG | 0.321 |
| CGCGGAGC | -0.0474 |
| CATAGTGC | -0.136 |
| GGTTTGAA | -0.00539 |
| GTCCGAAA | 0.312 |
| ACACCCGT | -0.0118 |
| GGGCTATA | -0.313 |
| CGCAAGGA | 0.167 |
| AGTGTGTC | 0.256 |
| ATTAGAGA | 0.00489 |
| CGAACAAG | 0.184 |
| CCAGTCAG | -0.209 |
| GCATGATA | 0.0628 |
| ACCACTAA | 0.143 |
| AAGGTGGT | -0.131 |
| ACGACAAT | 0.24 |

| Sequence | PBM E-score |
| --- | --- |
| CACGACAG | -0.0053 |
| GCCTATTA | 0.00604 |
| CCCTGGAC | 0.0807 |
| AATTCTCC | 0.071 |
| CATGAACA | 0.21 |
| ACAGACGT | 0.0589 |
| GCCACCCC | -0.283 |
| CACATATA | 0.0314 |
| CATTGATA | 0.0395 |
| TGAAGTCA | -0.0584 |
| AATATTGG | -0.0454 |
| CGGATGCC | -0.0295 |
| AGCCCGTC | -0.231 |
| AAAACGAA | 0.167 |
| AATGGTTG | -0.0125 |
| CGTTAGAC | -0.0528 |
| ATTCGCAC | -0.0102 |
| CAAACTCG | -0.0776 |
| AGGCCGCG | 0.0587 |
| AGTATGAG | 0.0158 |
| GAACGGAA | -0.00404 |
| CAAATGAG | -0.106 |
| ACCGGAAT | -0.03 |
| GATAGAGA | 0.0141 |
| AGGTGCGG | -0.191 |

| Sequence | PBM E-score |
| --- | --- |
| TATATAGA | 0.177 |
| GGTGCACA | -0.0287 |
| ATCGAAAG | 0.106 |
| AAACATTT | 0.151 |
| AAGACAGA | 0.216 |
| CTTAAGGA | 0.14 |
| ACGTGGCG | -0.0185 |
| ATGCTCTC | -0.153 |
| GTTCGAAC | 0.14 |
| AGTCGAAG | 0.00794 |
| ATACCCGC | -0.103 |
| CTACGGGA | -0.0335 |
| ACCTCGCT | 0.0267 |
| AGGAACCC | -0.0872 |
| ACCGCACT | -0.0595 |
| CCTATTTA | -0.0516 |
| CAACAGGA | -0.138 |
| AATAACAG | 0.151 |
| CCTCAAGC | -0.277 |
| GTGGACTA | 0.144 |
| GGCAGGCA | -0.0842 |
| CAAATAAA | 0.224 |
| GTGCGGGA | -0.0606 |
| ACGCGCCT | -0.0484 |
| AAGCGGTG | -0.174 |

| Sequence | PBM E-score |
| --- | --- |
| AAGGTATT | 0.0165 |
| CCCATGAC | -0.00547 |
| CAATAGTC | 0.0311 |
| ACCGGATA | -0.0231 |
| AAAACGTT | 0.154 |
| ATGTTACC | 0.157 |
| CTAATGAG | -0.0943 |
| CCGCACGA | 0.0364 |
| ATAGCACG | -0.198 |
| AGTGCGCG | -0.124 |
| GTGATCAA | 0.0353 |
| AGCTCATA | 0.113 |
| TTCGTAAA | 0.0452 |
| AGGGAGCA | -0.347 |
| AGCATTGA | -0.022 |
| ACACAACT | 0.181 |
| AAGAGGCG | -0.118 |
| AAGCACTT | -0.0667 |
| AGAGCCAC | -0.28 |
| CTGTAGGA | 0.0213 |
| CGTGACCA | 0.108 |
| GCCTAGCC | -0.234 |
| GCCCGTGA | -0.158 |
| AATAGTCG | 0.0523 |
| GCGAGCCC | -0.236 |

| Sequence | PBM E-score |
| --- | --- |
| CCTAGATA | -0.167 |
| CGGTAACA | 0.17 |
| CACATCGA | -0.00084 |
| AAGAACAT | 0.198 |
| CAAAGTTG | 0.101 |
| GTCCGAGA | 0.326 |
| ATATTCGC | 0.0417 |
| AAGGGGAT | -0.0523 |
| CGGCTAGC | 0.024 |
| TCCCCGCA | 0.00418 |
| AGTCTTGG | 0.0468 |
| CATTGGCA | 0.0733 |
| GGCCAAAC | -0.141 |
| AACTCACT | -0.275 |
| CAGATAGG | -0.0621 |
| AGCGATAC | -0.0221 |
| CTGAATAC | -0.00926 |
| TCATGCAA | 0.0129 |
| AAGTCGAT | 0.0478 |
| AAATCTCC | -0.234 |
| CAGAAAAG | 0.159 |
| ACTCATCT | 0.0848 |
| GATACCCC | 0.0625 |
| CAATTCGG | 0.0346 |
| CTGGAGAA | 0.00098 |

| Sequence | PBM E-score |
| --- | --- |
| AATCCAGC | -0.0771 |
| CCACACTA | 0.0776 |
| CCTATGTC | 0.254 |
| AGCCCCAA | -0.253 |
| AACTGTTC | 0.0994 |
| ACGCGCAG | -0.098 |
| GAAATCGC | 0.0209 |
| CCCCCTAG | -0.398 |
| ATCACGTA | -0.078 |
| GCCACACC | -0.0027 |
| ATTTGTAG | 0.162 |
| GCACGTCA | -0.0594 |
| CCTACAAC | 0.0278 |
| ATGATTTG | 0.0798 |
| CATGTTAG | 0.00794 |
| AGCCGGCA | 0.00158 |
| AGCCAACA | -0.114 |
| ATCTCAGG | 0.106 |
| AGAGCGAT | -0.0544 |
| ACGCGTGC | -0.0356 |
| AGGGTGGG | -0.0627 |
| ACCAAAGC | -0.0563 |
| CACTTTGA | 0.0229 |
| TAGGCATA | -0.0387 |
| GCATTGGC | -0.303 |

| Sequence | PBM E-score |
| --- | --- |
| GCAATGTA | 0.0757 |
| ACCCCTGC | -0.378 |
| CGAATTTA | 0.0939 |
| AAGCGCCT | -0.16 |
| GAGGGCCC | -0.296 |
| GCCTGCCC | -0.224 |
| TATTATGA | 0.0243 |
| CTGAGTTA | -0.135 |
| AACCGCGG | 0.141 |
| CGGGAGGC | -0.43 |
| ATTGGATC | -0.0161 |
| TGGTACAA | 0.386 |
| ACTAATCC | -0.0352 |
| GCGTTAAC | 0.0136 |
| CTTTATGC | 0.0705 |
| TTGTAAAA | 0.0512 |
| ACATCGAG | 0.00509 |
| ACAGAAAT | 0.169 |
| TCGAAGAA | -0.0428 |
| ACCTGTAA | -0.124 |
| CCCAGTAA | -0.047 |
| AGGCTCAT | -0.194 |
| ACCAGAAA | -0.00853 |
| ACTATCTG | -0.00414 |
| AAGTGCAT | -0.0129 |

| Sequence | PBM E-score |
| --- | --- |
| CCCTCCAA | -0.16 |
| ACAAGGAG | 0.0113 |
| ATTCGCAG | 0.166 |
| AAGTTAGA | 0.236 |
| ACAAGATG | 0.15 |
| TAATCCGA | 0.0246 |
| CTTAAAAG | 0.0822 |
| CGAGATAG | -0.11 |
| CCATACAC | 0.104 |
| AAGCCACG | -0.112 |
| AGCGCGAG | -0.0445 |
| AACGGCTG | -0.0272 |
| AAATTGGC | -0.118 |
| CTAGGATA | -0.13 |
| ACGCTATG | -0.0165 |
| CCATTCCC | -0.317 |
| CGTGAACG | -0.0459 |
| AAAACGTA | 0.00826 |
| CGTTCACC | -0.00692 |
| ATTGATTG | 0.0853 |
| ATAAATTG | 0.225 |
| GCTTTAAC | 0.0829 |
| AAAACATA | 0.0922 |
| AGTATCTC | 0.0248 |
| AATACGTG | 0.0479 |

| Sequence | PBM E-score |
| --- | --- |
| GACGGATC | 0.114 |
| GACTTTGC | 0.188 |
| CCCGCGCG | 0.178 |
| GAGAGAAA | 0.00902 |
| GCCAGCTA | -0.128 |
| CGGGTGAA | 0.099 |
| GGCCGGAC | 0.158 |
| ATCCAGGG | -0.162 |
| AGTCCGGG | 0.0714 |
| CGTCGCCA | -0.0547 |
| CTGCCTAC | 0.017 |
| TAACCGTA | -0.089 |
| GGACCCAA | -0.153 |
| GCTATTCA | -0.0315 |
| TAATTAGA | 0.216 |
| AATGCCGG | 0.0952 |
| GTCAGCAA | 0.0149 |
| ACCATCGA | -0.0448 |
| AGCCATTA | 0.105 |
